# Measurements reported in the supplement of paper PMC11417369.
# The other results are listed elsewhere or left out.
# Test system: PfHDP1 homeodomain (GST-tagged)
# Test: gcPBM binding intensity (ln(normalized median fluorescence intensity)); higher = stronger DNA binding
# Summary of the method: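 The binding buffer was 1× PBS containing 1% milk, 0.2 mg/ml BSA, 0.5% salmon testes DNA and 0.03% Triton X-100. In it, GST-tagged P. falciparum DNA-binding domains expressed in E. coli were applied for 1 h to an Agilent 4 × 180k array of primer-extended double-stranded 36-bp intergenic genomic probes plus negative controls. Binding intensity, read with Alexa488 anti-GST antibody and a 488 nm scan, is the highest Masliner-normalised natural-log median intensity across replicate spots of either probe orientation.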
row,Sequence,gcPBM binding intensity (ln)
1,TAGTACACACAAAATACATGCGGGGTTTAATATTTA [TGCATGCA_site576],6.96
2,AATTCTTTCATATATTGTACGTATTCCCATAAAATA [XGTACX_site5923],6.95
3,AAATGAATAAAATTTATTTATAAAAGAAAAATCACA [GTGCAC_negctrl_site225],6.43
4,AGTGTGTGTGCGTATAGTACATATACATATATACAC [XGTACX_site6882],6.87
5,ATAATACAAAATACATGTACAAATATTTTTCATATT [XGTACX_site1721],6.43
6,TGTGCACGCATATACACACACAAATACAATGATAAA [CACACA_site6656],9.39
7,AACGGGGCCAAGAAATATAAATAATCAAAACAAAAA [XGTACX_negctrl_site320],6.32
8,TTTCTTTATTTTTTTTTTTTTTTTTTTCCTTTTTTT [TGCATGCA_negctrl_site231],5.98
9,TGTTATATTTGTGCGTGTACACATTTGAAAAAATAT [XGTACX_site3796],7.25
10,GTTCTTTCAAGTTATACACACCAAAAAAAAAAAAAA [CACACA_site7435],6.52
11,AATATCATCAAACGCACACATACATAAATATATTAT [CACACA_site2174],7.74
12,TATTTATATAGACACACACACATATATTTATATTTT [CACACA_site7240],6.72
13,ACTTAAATAATACATACACACATGTACATACAGAAA [CACACA_site1595],7.03
14,TTTACATTTAATAAAAGTACTTATTTCATATACATA [XGTACX_site659],6.34
15,AAGGAAAAACCATTCGCACACACACCGAATATATAA [CACACA_site8403],6.87
16,TATATCAAATTCTAAACATGCACAAAAAACTTATAA [TGCATGCA_site510],8.27
17,ATACCAATAATATACATACACACATAAAGGTTTATA [CACACA_site314],6.65
18,AAGAAAAACTAAAGAGTTCTGTTCATATCTCTTTGG [TGCATGCA_negctrl_site549],5.77
19,TAATTCTTTATAATAACACACATTCATATACAATAA [CACACA_site2499],6.63
20,GGTATTACCTGTTTGTTATGTAGATGTTGCTAGGAT [GTGCAC_negctrl_site736],6.92
21,AATATACACCCGTGTACACAAATATTTACAAAACGT [CACACA_site4786],7.13
22,AAAAGGAATGAAAATTCACACAACTATAAATACATA [CACACA_site5337],6.34
23,GTTACACCAACAAACACACACACACCCACCCACAAA [CACACA_site2427],7.42
24,AATTTAAAGTTTTTTTTTTTTTTTTTTTTTTTTTTG [CACACA_negctrl_site1082],5.92
